From the supplement of paper PMC12578646, “Prodrug florfenicol amine is activated by intrinsic resistance to target Mycobacterium abscessus” (Nature Microbiology, 2025)
M. abscessus ATCC 19977 and its deletion, point and complemented mutants after 5 days of drug at 37 °C plus 24 h of resazurin. Growth in % of untreated wells at the dose given (lower = more inhibition); checkerboards give % inhibition (higher = more inhibition); IC50 from the fitted curve (lower = more potent). No active / inactive call. IC50 values come from the same 384-well curves. Growth is not capped and can exceed 100%. The direction of the checkerboard scale is read from the raw signals. Capreomycin is a mixture.

Assays:
Assay in all cases: growth relative to untreated wells; higher = more growth
[1] = tested on: Mycobacterium abscessus ATCC 19977 Δeis2 with pOLYG-aac(3)IV
Description: (§1)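 Two-fold dose series, three replicates; 5 days at 37 °C, then 24 h with resazurin; fluorescence scaled to growth and killed controls.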

[2] = tested on: Mycobacterium abscessus ATCC 19977 Δeis2 with pOLYG-aac(3)IV-eis2
Description: as §1

[3] = tested on: Mycobacterium abscessus ATCC 19977 ΔwhiB7 with pOLYG-aac(3)IV-eis2
Description: as §1

[4] = tested on: Mycobacterium abscessus ATCC 19977 ΔwhiB7 with pOLYG-aac(3)IV
Description: as §1

[5] = tested on: Mycobacterium abscessus ATCC 19977 ΔwhiB7
Description: as §1

[6] = tested on: Mycobacterium abscessus ATCC 19977 WhiB7 A51T with pOLYG-aac(3)IV
Description: as §1

[7] = tested on: Mycobacterium abscessus ATCC 19977 Eis2 T258R with pOLYG-aac(3)IV-eis2
Description: as §1

[8] = tested on: Mycobacterium abscessus ATCC 19977 WhiB7 A51T with pOLYG-aac(3)IV-eis2
Description: as §1

[9] = tested on: Mycobacterium abscessus ATCC 19977 Δcat
Description: as §1

[10] = tested on: Mycobacterium abscessus ATCC 19977 Eis2 T258R with pOLYG-aac(3)IV
Description: as §1

[11] = tested on: Mycobacterium abscessus ATCC 19977
Description: as §1

N[C@H](CO)[C@H](O)c1ccc([N+](=O)[O-])cc1 [chloramphenicol amine]
Settings	growth [%]
[1], 1 µg/mL	90.4
[1], 2 µg/mL	94.1
[1], 4 µg/mL	103
[1], 8 µg/mL	95.6
[1], 16 µg/mL	81
[1], 32 µg/mL	78.1
[1], 64 µg/mL	94.1
[1], 128 µg/mL	98.7
[1], 256 µg/mL	108
[1], 512 µg/mL	84.1
[1], 1024 µg/mL	68.5
[2], 1 µg/mL	102
[2], 2 µg/mL	109.2
[2], 4 µg/mL	113
[2], 8 µg/mL	112
[2], 16 µg/mL	107
[2], 32 µg/mL	100
[2], 64 µg/mL	72.3
[2], 128 µg/mL	36.2
[2], 256 µg/mL	7.8
[2], 512 µg/mL	1.87
[2], 1024 µg/mL	0.535
[3], 1 µg/mL	102
[3], 2 µg/mL	104
[3], 4 µg/mL	108
[3], 8 µg/mL	92.6
[3], 16 µg/mL	70.5
[3], 32 µg/mL	60.1
[3], 64 µg/mL	36.3
[3], 128 µg/mL	2.93
[3], 256 µg/mL	-0.111
[3], 512 µg/mL	-0.518
[3], 1024 µg/mL	-1.14
[4], 1 µg/mL	105
[4], 2 µg/mL	104
[4], 4 µg/mL	99.5
[4], 8 µg/mL	96.7
[4], 16 µg/mL	93.7
[4], 32 µg/mL	92.5
[4], 64 µg/mL	101
[4], 128 µg/mL	84.7
[4], 256 µg/mL	76.5
[4], 512 µg/mL	40.3
[4], 1024 µg/mL	1.32
[5], 1 µg/mL	87.5
[5], 2 µg/mL	98.8
[5], 4 µg/mL	101
[5], 8 µg/mL	92.1
[5], 16 µg/mL	101
[5], 32 µg/mL	113
[5], 64 µg/mL	109
[5], 128 µg/mL	105
[5], 256 µg/mL	66.6
[5], 512 µg/mL	12.9
[6], 1 µg/mL	101
[6], 2 µg/mL	103
[6], 4 µg/mL	103
[6], 8 µg/mL	103
[6], 16 µg/mL	98
[6], 32 µg/mL	94.44
[6], 64 µg/mL	106
[6], 128 µg/mL	86.8
[6], 256 µg/mL	76.8
[6], 512 µg/mL	56.8
[6], 1024 µg/mL	-1.63
[7], 1 µg/mL	105
[7], 2 µg/mL	104
[7], 4 µg/mL	103
[7], 8 µg/mL	96.8
[7], 16 µg/mL	86.6
[7], 32 µg/mL	76.2
[7], 64 µg/mL	61.1
[7], 128 µg/mL	20.8
[7], 256 µg/mL	2.17
[7], 512 µg/mL	-0.201
[7], 1024 µg/mL	0.0843
[8], 1 µg/mL	105
[8], 2 µg/mL	112
[8], 4 µg/mL	105
[8], 8 µg/mL	99.5
[8], 16 µg/mL	69.3
[8], 32 µg/mL	61.5
[8], 64 µg/mL	43.4
[8], 128 µg/mL	3.45
[8], 256 µg/mL	0.18
[8], 512 µg/mL	-0.129
[8], 1024 µg/mL	-1.35
[9], 1 µg/mL	96.8
[9], 2 µg/mL	93.7
[9], 4 µg/mL	74.9
[9], 8 µg/mL	50
[9], 16 µg/mL	36.7
[9], 32 µg/mL	23.3
[9], 64 µg/mL	0.503
[9], 128 µg/mL	-3.64
[9], 256 µg/mL	-3.7
[9], 512 µg/mL	-2.58
[10], 1 µg/mL	91
[10], 2 µg/mL	104
[10], 4 µg/mL	104
[10], 8 µg/mL	98.4
[10], 16 µg/mL	97.3
[10], 32 µg/mL	88.9
[10], 64 µg/mL	99.5
[10], 128 µg/mL	99.9
[10], 256 µg/mL	101
[10], 512 µg/mL	91.36
[10], 1024 µg/mL	59
[11], 1 µg/mL	99.1
[11], 2 µg/mL	105
[11], 4 µg/mL	102
[11], 8 µg/mL	106
[11], 16 µg/mL	114
[11], 32 µg/mL	100
[11], 64 µg/mL	94.8
[11], 128 µg/mL	76.6
[11], 256 µg/mL	3.5
[11], 512 µg/mL	-0.313
